Measured values as given in article PMC4336329 (PLoS ONE, 2015).
The campaign covered roughly 310,000 compounds. About 14,000 (4.5%) showed an effect of 50% or more. Effects have a minus sign here. This is one part of the list.

What follows are compounds tested against human ether-à-go-go-related gene (hERG) potassium channel (human, UniProt Q12809) (assay: primary screen, population patch clamp on CHO cells stably expressing hERG).
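Note: peak tail current of the secondary pulse compared with the same well before compound.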

human ether-à-go-go-related gene (hERG) potassium channel, sequence (Q12809 whole entry, looked up): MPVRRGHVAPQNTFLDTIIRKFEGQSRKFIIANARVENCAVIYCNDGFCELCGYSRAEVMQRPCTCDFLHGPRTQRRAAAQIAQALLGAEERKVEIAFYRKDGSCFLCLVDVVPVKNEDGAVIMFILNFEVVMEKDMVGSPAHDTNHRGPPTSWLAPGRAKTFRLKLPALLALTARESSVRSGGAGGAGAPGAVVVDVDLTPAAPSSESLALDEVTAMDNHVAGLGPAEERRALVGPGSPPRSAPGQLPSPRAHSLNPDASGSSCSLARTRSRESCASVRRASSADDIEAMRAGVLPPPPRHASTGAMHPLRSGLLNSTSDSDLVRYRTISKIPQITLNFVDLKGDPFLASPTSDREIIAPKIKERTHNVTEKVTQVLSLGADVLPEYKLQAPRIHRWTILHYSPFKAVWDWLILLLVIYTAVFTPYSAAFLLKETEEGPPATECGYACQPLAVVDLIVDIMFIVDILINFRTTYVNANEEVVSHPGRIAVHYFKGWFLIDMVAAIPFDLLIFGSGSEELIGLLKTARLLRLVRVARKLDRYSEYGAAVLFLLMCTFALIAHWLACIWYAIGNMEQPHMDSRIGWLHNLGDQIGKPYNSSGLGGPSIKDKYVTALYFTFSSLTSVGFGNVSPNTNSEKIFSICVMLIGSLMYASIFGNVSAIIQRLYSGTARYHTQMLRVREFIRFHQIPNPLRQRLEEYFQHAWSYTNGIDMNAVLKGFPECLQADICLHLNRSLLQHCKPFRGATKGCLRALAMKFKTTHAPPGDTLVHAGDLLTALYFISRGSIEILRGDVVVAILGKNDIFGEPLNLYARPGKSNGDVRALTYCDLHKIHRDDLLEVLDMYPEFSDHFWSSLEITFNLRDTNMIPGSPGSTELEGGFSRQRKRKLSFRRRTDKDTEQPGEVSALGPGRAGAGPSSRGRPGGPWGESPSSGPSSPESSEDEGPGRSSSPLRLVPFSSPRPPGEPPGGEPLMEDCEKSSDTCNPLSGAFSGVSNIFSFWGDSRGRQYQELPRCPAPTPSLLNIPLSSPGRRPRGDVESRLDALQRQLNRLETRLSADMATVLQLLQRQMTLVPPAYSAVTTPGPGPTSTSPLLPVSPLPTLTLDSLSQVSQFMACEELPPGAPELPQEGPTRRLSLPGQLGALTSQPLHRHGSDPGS

Row | SMILES | hERG current change (%, negative = inhibition) at 10uM [%]
1 | COC(=O)c1sc2ccccc2c1NC(=O)c1ccc(S(=O)(=O)N2CCC(C)CC2)cc1 | -2.62
2 | O=P(C(c1c[nH]c2ccccc12)N1CCOCC1)(N1CCOCC1)N1CCOCC1 (stereo not shown) | -3.87
3 | C=CCN(CC=C)CCOc1cccc(Oc2ccccc2)c1.O=C(O)C(=O)O | 6.57
4 | CCOc1ccccc1N1CCN(C(=O)Nc2ccc(F)c(Cl)c2)CC1 | -16.6
5 | CCc1nn(C(C)C(=O)NCCc2ccccc2)c(=O)c2cc3occc3n12 (stereo not shown) | -31.1
6 | O=C(NCCc1ccc(Cl)cc1)c1ccc(S(=O)(=O)N2CCCC2)cc1 | 0.599
7 | CC(C)(C)C(=O)Cn1nc(Cl)nc1Cl | 7.68
8 | COc1ccc(-c2cc(C3CCN(C(=O)OC(C)(C)C)CC3)[nH]n2)cc1 | -26.4
9 | O=C(Cn1cnc([N+](=O)[O-])n1)N/N=C/c1cc(Cl)ccc1O | 3.28
10 | C#CCOCCOCCOCCNc1nc(N2CCN(C(=O)[C@H](CCCCN)n3cc([C@@H](N)CO)nn3)CC2)nc(N2CCN(C(=O)[C@H](Cc3ccc(O)cc3)n3cc([C@@H](N)CC(C)C)nn3)CC2)n1.Cl | 8.82
11 | COc1cc(C(=O)NCC(C)C)cc(OC)c1OC | 6.67
12 | COc1ccc(N2CCN(c3oc(COc4ccc(Cl)cc4)nc3C#N)CC2)cc1 | -2.55
13 | COc1ccc(CCN2C(=O)C3C4CCC(C4=C(C)C)C3C2=O)cc1OC (stereo not shown) | 18.1
14 | COc1ccc(/C=C(\NC(=O)c2ccc(C)cc2)C(=O)NCC2CCCO2)cc1 (stereo not shown) | -8.44
15 | COc1cc(Cl)ccc1OCc1cc(C(=O)N2C[C@@H]3CCC[C@H]2C3)no1 | -26.8
16 | COc1ccc(OC)c(C2=NS(=O)(=O)N(C)C(C(=O)Nc3cccc(C(C)=O)c3)=C2)c1 | -2.21
17 | CCOC(=O)CC(=O)CSc1ccc2nnc(-c3ccc(F)cc3)n2n1 | -23.4
18 | CCOC(=O)/C=C/[C@H]1CCc2cccc(C)c2O1 | -14.8
19 | Cc1cc(C)n(S(=O)(=O)c2ccccc2[N+](=O)[O-])n1 | 14.3
20 | Cc1nn(-c2ccccc2)c2nc(N)c(C#N)c(-c3ccc(O)c(O)c3)c12 | 13
21 | CCOC(=O)c1ccc(NC(=O)C2C3CCC(C3)C2C(=O)O)cc1 (stereo not shown) | 15.4
22 | CCc1cccc(OCC(=O)Nc2ccc(S(=O)(=O)N3CCCC3)cc2)c1 | 2.4

Row | SMILES | hERG current change (%, negative = inhibition) at 10uM [%]
23 | CN(CC(=O)NC1CCCCCC1)S(=O)(=O)c1ccc2c(c1)n(C)c(=O)c(=O)n2C | 11.6
24 | C=C(C)CSc1nnc2n(C)c(=O)c3c4c(sc3n12)CCC4 | -21.6
25 | COCCn1c(C)cc(C(=O)COC(=O)c2ccc(-n3nc(C)cc3C)cc2)c1C | 2.16
26 | COc1ccc(S(=O)(=O)CC(=O)Nc2ccccc2Cl)cc1 | 13.3
27 | CCCCc1nnc(NC(=O)C23CC4CC(CC(NC(C)=O)(C4)C2)C3)s1 | -1.81
28 | CCOC(=O)C(CCCOc1ccccc1C)C(=O)OCC | 6.43
29 | Cc1cc(OCC(=O)NCCO)ccc1Cl | 6.66
30 | Cc1c(C(=O)NCc2ccco2)sc2nc(-c3ccccc3)cn12 | -30.8
31 | N#CC(C#N)=C1C(=O)N(CCN2CCCCC2)c2ccccc21 | -0.262
32 | CCc1ccccc1N=C1S/C(=C/c2ccccc2OCC(=O)N2CCOCC2)C(=O)N1C | -17.6
33 | O=c1c2ccccc2c(=O)n(-c2ccccc2)n1CCCCBr | -63.5
34 | COc1ccccc1C1N(c2ccc(Cl)cc2)C(=O)C2CCCN21 (stereo not shown) | 11.7
35 | Cl.N=c1n(Cc2ccc(Cl)cc2)c2ccccc2n1CC(O)COc1ccccc1 (stereo not shown) | -68.2
36 | Cc1c(Cl)cccc1NC(=O)CCC(=O)N/N=C/c1ccco1 | 18.9
37 | CS(=O)(=O)NN1C(=O)c2ccccc2NC1c1c[nH]c2ccccc12 (stereo not shown) | 6.65
38 | O=C(O)C1CCC(=O)N1C1CCCC1 (stereo not shown) | 10.9
39 | CCOC(=O)CCC(NC(=O)CCC(=O)NC(CCC(=O)OCC)C(=O)OCC)C(=O)OCC (stereo not shown) | 25.1
40 | N#CC(C(=O)NC1CC1)c1nc2ccccc2nc1N1CCCC1 (stereo not shown) | -7.63
41 | COc1ccc(CCn2c(=N)c(S(=O)(=O)c3ccc(Cl)cc3)cc3c(=O)n4ccccc4nc32)cc1 | 20.5
42 | CC1CCCCN1C(=O)c1ccccc1OC1CCN(S(C)(=O)=O)CC1 (stereo not shown) | 5.73
43 | COc1ccc(CNC(=O)CSc2ccc(Br)cc2)cc1OC | -63.1
44 | COc1ccccc1NC(=O)C1CC(=O)OC1c1ccccc1 (stereo not shown) | -4.82

Row | SMILES | hERG current change (%, negative = inhibition) at 10uM [%]
45 | COc1cc(OC)cc(C2(C#N)CCN(C)CC2)c1 | -9.94
46 | Cc1onc(-c2ccccc2)c1C(=O)OCC(=O)N(CC(C)C)c1c(N)n(Cc2ccccc2)c(=O)[nH]c1=O | 5.16
47 | CCCCNC(=O)c1c(N)n(/N=C/c2ccccn2)c2nc3ccccc3nc12 | 8.1
48 | O=C(c1ccc(F)cc1)c1ccc(N2CCCC2)cc1 | -8.35
49 | CC(C)C(C(=O)Nc1ccccc1)N1C(=O)c2ccccc2C1=O (stereo not shown) | -3.34
50 | Cc1ccc(NC2CCCCC2NS(=O)(=O)c2ccc(Cl)cc2)cc1 (stereo not shown) | 5.07
51 | CN(Cc1ccon1)C(=O)CCc1nnc(Cc2ccc(-c3ccccc3)cc2)o1 | -20
52 | COc1cc2c(cc1OC)[C@@]13CCN4CC5=CCO[C@H]6CC(=O)N2[C@H]1[C@H]6[C@H]5C[C@H]43 | -8.03
53 | CCN(CC)c1ccc(NC(=O)CN2CCN(c3ccccn3)CC2)cc1 | -2.86
54 | COc1ccc(NC(=O)c2ccco2)c2ccccc12 | -2.18
55 | O=C(Cc1n[nH]c(=O)[nH]c1=O)N/N=C/c1ccccc1O | 8.68
56 | O=C(COC(=O)c1cc(S(=O)(=O)N2CCCCC2)ccc1N1CCOCC1)NC1CCS(=O)(=O)C1 (stereo not shown) | 4.31
57 | Cc1ccccc1CN1CCC(CNC(=O)C2CCCN(c3ncnc4c3nc3n4CCCCC3)C2)CC1 (stereo not shown) | -7.3
58 | COc1ccc(C(=O)NCC(=O)OCC(=O)N2CCN(S(=O)(=O)c3ccccc3)CC2)cc1 | 2.35
59 | NCC(CC(=O)O)C1CCCCC1 (stereo not shown) | 5.24
60 | COc1ccccc1OCC(=O)NC1CC(C)(C)NC(C)(C)C1 | 4.85
61 | Cc1c(C(=O)Nc2ccccc2)cnn1-c1ccccc1 | -3.03
62 | Cc1cc(C)c(S(=O)(=O)n2nc(C)c(Br)c2C)c(C)c1 | 2.14
63 | O=C(N/N=C/c1coc2ccccc2c1=O)c1ccccc1 | 10.6
64 | O=C1COc2ccc(C(=O)COc3ccc([N+](=O)[O-])cc3)cc2N1 | 8.2
65 | CN(C)C(CNC(=O)c1ccc([N+](=O)[O-])cc1Cl)c1ccco1 (stereo not shown) | 8.69
66 | CN(C)S(=O)(=O)c1cccc(NC(=O)CN2C(=O)NC(Cc3c[nH]c4ccccc34)C2=O)c1 (stereo not shown) | 18.4

Row | SMILES | hERG current change (%, negative = inhibition) at 10uM [%]
67 | CC(C)c1ccc(NC(=O)CN2CCN(c3ccccn3)CC2)cc1 | -2.34
68 | COc1ccccc1Cn1c(C)nc2ccccc21 | 2.25
69 | O=C(COc1ccc(Br)cc1CO)Nc1ccccc1 | -10.4
70 | NC(CSCc1ccccc1Cl)C(=O)O (stereo not shown) | 0.173
71 | COc1ccc(C(=O)C2CCCN(CCO)C2)c(C)c1 (stereo not shown) | 4.23
72 | CC1Cc2ccccc2N1S(=O)(=O)c1cnc(Cl)c(Cl)c1 (stereo not shown) | 22.6
73 | CSc1nc(Sc2ccccc2Cl)c2ccccc2n1 | 16.6
74 | CC(C)(C)C(=O)CN1C(=O)NC2(CCCc3ccccc32)C1=O (stereo not shown) | 14
75 | O=C1N[C@@H](Cc2ccccc2)C(=O)N2[C@H]1C[C@]1([C@]34C[C@H]5C(=O)N[C@@H](Cc6ccccc6)C(=O)N5[C@H]3N(S(=O)(=O)c3ccccc3)c3ccccc34)c3ccccc3N(S(=O)(=O)c3ccccc3)[C@H]21 | 9.44
76 | COc1ccccc1NC(=O)CCCN1C(=O)C(c2ccccc2)Oc2cccnc21 (stereo not shown) | -18.7
77 | CC(=O)Nc1ccc(NC(=O)C2C3CCC(C3)C2C(=O)O)cc1 (stereo not shown) | 15.1
78 | COc1ccccc1CNCc1cccc(Oc2ccccc2)c1 | -15.4
79 | CC(C)(C)c1cc(Cc2ccccc2)[nH]n1 | -5.18
80 | COc1ccc(/C=C(\NC(=O)c2ccc(C)cc2)C(=O)NCCN2CCOCC2)cc1 | -64.6
81 | CCOc1cccc(-c2c(C(=O)N/N=C(\C)c3cccs3)nnn2-c2nonc2N)c1 | 11.7
82 | CCOc1ccc(S(=O)(=O)N2CCCC(C(=O)NCc3cccnc3)C2)cc1C (stereo not shown) | -7.47
83 | CCOc1ccc(NS(=O)(=O)c2ccc(C(=O)NCCCN3CCCC3=O)cc2)cc1 | 7.23
84 | CC[N+](CC)(CC)CCCOC(=O)C(O)(c1ccccc1)C1CCCCC1.[Cl-] (stereo not shown) | 1.36
85 | CCCC(=O)Nc1c(C)nn(C(=O)CCC)c1C | 7.41
